{"source": "paper PMC8870497", "molecules": {"B1": {"name": "Myc-tagged TAB2, in vitro translated (protein, UniProt Q9NYJ8 1-693)", "chain": "MAQGSHQIDFQVLHDLRQKFPEVPEVVVSRCMLQNNNNLDACCAVLSQESTRYLYGEGDLNFSDDSGISGLRNHMTSLNLDLQSQNIYHHGREGSRMNGSRTLTHSISDGQLQGGQSNSELFQQEPQTAPAQVPQGFNVFGMSSSSGASNSAPHLGFHLGSKGTSSLSQQTPRFNPIMVTLAPNIQTGRNTPTSLHIHGVPPPVLNSPQGNSIYIRPYITTPGGTTRQTQQHSGWVSQFNPMNPQQVYQPSQPGPWTTCPASNPLSHTSSQQPNQQGHQTSHVYMPISSPTTSQPPTIHSSGSSQSSAHSQYNIQNISTGPRKNQIEIKLEPPQRNNSSKLRSSGPRTSSTSSSVNSQTLNRNQPTVYIAASPPNTDELMSRSQPKVYISANAATGDEQVMRNQPTLFISTNSGASAASRNMSGQVSMGPAFIHHHPPKSRAIGNNSATSPRVVVTQPNTKYTFKITVSPNKPPAVSPGVVSPTFELTNLLNHPDHYVETENIQHLTDPTLAHVDRISETRKLSMGSDDAAYTQALLVHQKARMERLQRELEIQKKKLDKLKSEVNEMENNLTRRRLKRSNSISQIPSLEEMQQLRSCNRQLQIDIDCLTKEIDLFQARGPHFNPSAIHNFYDNIGFVGPVPPKPKDQRSIIKTPKTQDTEDDEGAQWNCTACTFLNHPALIRCEQCEMPRHF"}, "B2": {"name": "Myc-tagged human Spir-2 (protein, UniProt Q8WWL2 1-714)", "chain": "MARAGSCGGAAAGAGRPEPWELSLEEVLKAYEQPLNEEQAWAVCFQGCRGLRGSPGRRLRDTGDLLLRGDGSVGAREPEAAEPATMVVPLASSEAQTVQSLGFAIYRALDWGLDESEERELSPQLERLIDLMANNDSEDSGCGAADEGYGGPEEEEEAEGVPRSVRTFAQAMRLCAARLTDPRGAQAHYQAVCRALFVETLELRAFLARVREAKEMLQKLREDEPHLETPRAELDSLGHTDWARLWVQLMRELRRGVKLKKVQEQEFNPLPTEFQLTPFEMLMQDIRARNYKLRKVMVDGDIPPRVKKDAHELILDFIRSRPPLKQVSERRLRPLPPKQRSLHEKILEEIKQERRLRPVRGEGWAARGFGSLPCILNACSGDAKSTSCINLSVTDAGGSAQRPRPRVLLKAPTLAEMEEMNTSEEEESPCGEVTLKRDRSFSEHDLAQLRSEVASGLQSATHPPGGTEPPRPRAGSAHVWRPGSRDQGTCPASVSDPSHPLLSNRGSSGDRPEASMTPDAKHLWLEFSHPVESLALTVEEVMDVRRVLVKAEMEKFLQNKELFSSLKKGKICCCCRAKFPLFSWPPSCLFCKRAVCTSCSIKMKMPSKKFGHIPVYTLGFESPQRVSAAKTAPIQRRDIFQSLQGPQWQSVEEAFPHIYSHGCVLKDVCSECTSFVADVVRSSRKSVDVLNTTPRRSRQTQSLYIPNTRTLDFK"}}, "assay_in_all_cases": "co-IP", "key": {"[1]": {"biological_target": "T1, Myc-tagged human Spir-2 (human) (UniProt Q8WWL2)", "T1 sequence": "B2 chain"}, "[2]": {"biological_target": "Myc-tagged β-TrCP (UniProt Q9Y297)"}, "[3]": {"biological_target": "FLAG-tagged K7, in vitro translated (vaccinia virus) (UniProt P68466)"}, "[4]": {"biological_target": "DDX3, in vitro translated (UniProt O00571)"}, "[5]": {"biological_target": "T2, Myc-tagged TAB2, in vitro translated (UniProt Q9NYJ8)", "T2 sequence": "B1 chain"}, "[6]": {"biological_target": "FLAG-tagged, codon-optimised vaccinia virus protein K7 (vaccinia virus) (UniProt P68466)"}, "[7]": {"biological_target": "HA-tagged K7 expressed from vaccinia virus vHA-K7 (vaccinia virus strain Western Reserve) (UniProt P68466)"}, "[8]": {"biological_target": "FLAG-tagged K7, in vitro translated (vaccinia virus) (UniProt P68466)", "remark": "listed apart in the source"}, "[9]": {"biological_target": "FLAG-tagged, codon-optimised vaccinia virus protein K7 (vaccinia virus) (UniProt P68466)", "remark": "listed apart in the source"}}, "note": "Like-named read-outs stand apart in the source and are kept apart here. These are yes or no findings as the source states them, for the method shown. Binding seen in cells or lysates may run through a third protein. Some binding calls cover weakened binding; strength is not graded here. For some of these results: Tags and fused reporters may be left off the sequences shown."}
{"molecule": "FLAG-tagged, codon-optimised vaccinia virus protein K7 (from UniProt P68466 1-149)", "values": [{"measurement": "binding", "setting": "[1]", "result": "no binding"}, {"measurement": "binding", "setting": "[2]", "result": "no binding"}]}
{"molecule": "DDX3, in vitro translated (from UniProt O00571 1-662)", "values": [{"measurement": "binding", "setting": "[3]", "result": "binds"}]}
{"molecule": "FLAG-tagged K7, in vitro translated (from UniProt P68466 1-149)", "values": [{"measurement": "binding", "setting": "[4]", "result": "binds"}, {"measurement": "binding", "setting": "[5]", "result": "no binding"}]}
{"molecule": "Myc-tagged β-TrCP (from UniProt Q9Y297 1-605)", "values": [{"measurement": "binding", "setting": "[6]", "result": "no binding"}]}
{"molecule": "HA-tagged DDX3 (from UniProt O00571 1-662)", "values": [{"measurement": "binding", "setting": "[6]", "result": "binds"}]}
{"molecule": "endogenous DDX3 (from UniProt O00571 1-662)", "values": [{"measurement": "binding", "setting": "[7]", "result": "binds"}]}
{"molecule": "B1", "values": [{"measurement": "binding", "setting": "[8]", "result": "no binding"}]}
{"molecule": "B2", "values": [{"measurement": "binding", "setting": "[9]", "result": "no binding"}]}
